“And” between values parts separate entries of the source, which are not always exact repeats. Equal values may be shown once. Inconclusive results, whose numbers are uncertain, are shown with a selection of clear calls. For some of these results: Where the call is inconclusive, the potency comes from a doubtful curve fit. For some of these results: “Side channel” marks fits to a control or component signal instead of the main read-out. The source made the active and inactive calls. Unless noted, the call rests on the fitted dose curve; in most records, active means well fitted curve in the direction sought with a large enough effect; inconclusive means small, poorly fitted or top-dose-only effect, or another doubt; inactive means no such curve, though single readings can be large; an effect the other way counts as inactive or inconclusive.
What was measured:
[1] = NFAT Signaling Pathway (AID 444; active means well fitted curve in either direction with a large enough effect, not every such curve was filed as active; inconclusive means small, poorly fitted or top-dose-only effect, or another doubt;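 further: carbachol stimulus at about its EC50 of 1 µM final; on the % scale 0 is the no-effect control and ±100 the full control effect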); conditions: Jurkat NFAT-bla M1, carbachol, beta-lactamase ratio, 5 h; at 38 µM (top of the series)
Outline: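 Jurkat cells carrying an NFAT-driven β-lactamase reporter and co-transfected muscarinic M1 receptor were treated with compound plus carbachol (1 uM final, an EC50 level) for 5 h at 37 °C. CCF4 loading followed for 1 h at RT; 460/530 nm ratio gave %activity.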

[2] = qHTS Validation Assay to Find Inhibitors of Chronic Active B-Cell Receptor Signaling (AID 485345; active means well fitted curve in the direction sought with a large enough effect in the main read-out, with a control signal flat, not every such curve was filed as active; inconclusive means small, poorly fitted or top-dose-only effect, or effect the other way, or a change in a side signal; inactive means no such curve, though single readings can be large or run the other way;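 further: 0% = untreated basal cells and 100% = 10 µM MG-132 proteasome inhibitor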); conditions: ABC-DLBCL cells, chronic BCR signaling reporter; activity change: CBG luciferase, at 46.1 µM (top of the series)
Outline: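 TMD8 ABC-DLBCL cells with dox-inducible green luciferase–IκBα fusion and red native luciferase; compounds 46 uM–3 nM, 4 h at 37C with doxycycline in 0.5% FBS IMDM. Green/red ratio normalized to basal and 10 uM MG-132.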

[3] = biological target: Tyrosine-protein phosphatase non-receptor type substrate 1 (Homo sapiens) + Leukocyte surface antigen CD47 (Homo sapiens) (UniProt P78324+Q08722); test: CD47-SIRPalpha protein protein interaction - Alpha assay qHTS validation (AID 1347059); conditions: AlphaScreen CD47-His/biotin-SIRPalpha binding, LOPAC; series mostly up to 38.3 µM;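 further: bead proximity luminescence from CD47 binding SIRPalpha after compound preincubation with SIRPalpha; potency means the concentration at half of the fitted maximal effect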
Chain of UniProt P78324 (P78324 whole entry, looked up, the tested form may be a part): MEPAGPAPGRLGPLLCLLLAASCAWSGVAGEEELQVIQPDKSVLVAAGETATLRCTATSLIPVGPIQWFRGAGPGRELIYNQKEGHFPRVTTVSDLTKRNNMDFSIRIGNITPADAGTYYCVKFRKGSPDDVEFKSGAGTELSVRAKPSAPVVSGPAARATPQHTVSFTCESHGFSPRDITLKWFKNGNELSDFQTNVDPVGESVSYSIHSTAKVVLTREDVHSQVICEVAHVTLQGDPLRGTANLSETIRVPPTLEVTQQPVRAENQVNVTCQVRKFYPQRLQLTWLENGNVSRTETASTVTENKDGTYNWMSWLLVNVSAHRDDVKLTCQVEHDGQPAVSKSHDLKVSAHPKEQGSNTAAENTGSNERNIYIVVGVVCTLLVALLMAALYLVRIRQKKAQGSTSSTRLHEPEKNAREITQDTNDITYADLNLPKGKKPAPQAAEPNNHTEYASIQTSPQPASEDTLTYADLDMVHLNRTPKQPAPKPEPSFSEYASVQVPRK
Chain of UniProt P78324 (Q08722 whole entry, looked up, the tested form may be a part): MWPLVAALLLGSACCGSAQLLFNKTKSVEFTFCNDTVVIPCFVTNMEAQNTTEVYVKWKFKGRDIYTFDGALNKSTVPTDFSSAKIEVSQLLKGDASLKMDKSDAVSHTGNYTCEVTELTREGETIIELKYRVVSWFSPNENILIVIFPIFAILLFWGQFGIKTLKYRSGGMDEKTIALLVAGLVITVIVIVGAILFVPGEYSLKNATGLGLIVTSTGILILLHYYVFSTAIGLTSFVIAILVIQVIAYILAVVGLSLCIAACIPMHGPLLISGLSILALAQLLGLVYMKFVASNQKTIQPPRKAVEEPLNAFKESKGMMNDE
Outline: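 In PBS (pH 7.4) with 0.05% IGEPAL CA-630, compound is preincubated with biotin-Avi-SIRPalpha ectodomain before His-CD47 ectodomain and affinity beads are added. Light-protected room-temperature incubations; AlphaScreen readout.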

[4] = biological target: DNA repair nuclease/redox regulator APEX1 (Homo sapiens) (UniProt P27695); test: qHTS Validation Assay for Inhibitors of the Human Apurinic/apyrimidinic Endonuclease 1 (APE1) (AID 1705; further: potency means the concentration at half of the fitted maximal effect); conditions: purified APE1 endonuclease activity, fluorescence, titration; series mostly up to 57.1 µM
Chain of UniProt P27695 (P27695 whole entry, looked up): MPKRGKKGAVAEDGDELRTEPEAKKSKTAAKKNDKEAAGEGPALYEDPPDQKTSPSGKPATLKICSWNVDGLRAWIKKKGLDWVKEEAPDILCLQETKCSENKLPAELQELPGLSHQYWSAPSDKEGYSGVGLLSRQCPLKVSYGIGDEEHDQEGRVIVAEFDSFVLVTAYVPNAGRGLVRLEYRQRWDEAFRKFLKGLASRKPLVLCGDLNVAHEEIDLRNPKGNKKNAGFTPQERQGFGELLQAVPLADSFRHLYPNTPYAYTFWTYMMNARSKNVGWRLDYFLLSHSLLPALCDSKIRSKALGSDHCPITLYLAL
Outline: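 Read-out: TAMRA fluorescence (525 nm ex, 598 nm em) from cleavage of a quenched THF abasic-site duplex, 50 nM final; activity taken as intensity change between third and first of three reads 60 s apart.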

[5] = Counterscreen for APE1 Inhibitors: Fluorescent Dye Displacement Validation Assay (AID 1707); conditions: fluorescent dye displacement from DNA; series mostly up to 57.1 µM; further: potency means the concentration at half of the fitted maximal effect
Outline: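 Signal: ThO fluorescence (ex 480 nm/em 540 nm) on binding 50 nM dsDNA; displacement by test compound reduces it. Conditions: 250 nM dye, 50 mM Tris-HCl pH7.5, 2 mM MgCl2, 50mM NaCl, 0.01% Tween-20.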

[6] = biological target: M-phase phosphoprotein 8 (Homo sapiens) (UniProt Q99549); test: qHTS Validation Assay for Inhibitors for MPP8 Chromodomain Interactions with Methylated Histone Tails (AID 488949); conditions: AlphaScreen MPP8 binding to H3K9me3 peptide; activity change, negative = inhibition: at 57.1 µM (top of the series) unless noted; further: potency means the concentration at half of the fitted maximal effect; nearly all actives have a fitted effect of over 55% in size
Chain of UniProt Q99549 (Q99549 whole entry, looked up): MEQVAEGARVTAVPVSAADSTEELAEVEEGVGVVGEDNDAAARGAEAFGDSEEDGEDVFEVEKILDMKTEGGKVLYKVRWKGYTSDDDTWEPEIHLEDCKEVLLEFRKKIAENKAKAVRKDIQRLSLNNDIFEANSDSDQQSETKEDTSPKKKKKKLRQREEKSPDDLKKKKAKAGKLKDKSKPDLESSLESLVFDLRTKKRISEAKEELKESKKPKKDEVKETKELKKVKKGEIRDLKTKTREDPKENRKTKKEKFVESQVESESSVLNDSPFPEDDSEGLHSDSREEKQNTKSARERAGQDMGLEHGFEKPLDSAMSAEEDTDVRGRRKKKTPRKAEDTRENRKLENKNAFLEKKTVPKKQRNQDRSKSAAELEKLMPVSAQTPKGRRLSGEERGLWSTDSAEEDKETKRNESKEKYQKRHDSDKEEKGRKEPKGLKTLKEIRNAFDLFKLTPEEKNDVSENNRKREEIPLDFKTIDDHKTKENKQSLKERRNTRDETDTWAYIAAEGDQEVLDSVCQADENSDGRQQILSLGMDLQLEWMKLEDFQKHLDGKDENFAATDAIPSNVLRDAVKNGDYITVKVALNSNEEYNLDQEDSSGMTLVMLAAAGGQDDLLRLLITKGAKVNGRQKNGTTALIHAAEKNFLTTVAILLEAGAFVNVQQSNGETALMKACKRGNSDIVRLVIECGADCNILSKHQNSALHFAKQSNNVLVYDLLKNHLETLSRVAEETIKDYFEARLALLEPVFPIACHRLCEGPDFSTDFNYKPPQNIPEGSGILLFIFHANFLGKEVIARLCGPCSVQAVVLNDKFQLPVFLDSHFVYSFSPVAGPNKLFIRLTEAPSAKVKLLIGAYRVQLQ
Outline: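 AlphaScreen read-out: streptavidin donor and nickel chelate acceptor beads (final 10 ug/mL), 30 min in the dark at RT. Complex of 50 nM MPP8 and 50 nM b-H3(1-18)K9me3 peptide had been exposed to compounds for 30 min beforehand.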

[7] = biological target: D(1A) dopamine receptor (Homo sapiens) (UniProt P21728); test: HTS Assay for Allosteric Agonists of the Human D1 Dopamine Receptor: Primary Screen for Potentiators (AID 488982); conditions: HEK293 T-REx D1 inducible cells, calcium flux, kinetic fluorescence; series mostly up to 8.37 µM; further: potency means the concentration at half of the fitted maximal effect
Chain of UniProt P21728 (P21728 whole entry, looked up): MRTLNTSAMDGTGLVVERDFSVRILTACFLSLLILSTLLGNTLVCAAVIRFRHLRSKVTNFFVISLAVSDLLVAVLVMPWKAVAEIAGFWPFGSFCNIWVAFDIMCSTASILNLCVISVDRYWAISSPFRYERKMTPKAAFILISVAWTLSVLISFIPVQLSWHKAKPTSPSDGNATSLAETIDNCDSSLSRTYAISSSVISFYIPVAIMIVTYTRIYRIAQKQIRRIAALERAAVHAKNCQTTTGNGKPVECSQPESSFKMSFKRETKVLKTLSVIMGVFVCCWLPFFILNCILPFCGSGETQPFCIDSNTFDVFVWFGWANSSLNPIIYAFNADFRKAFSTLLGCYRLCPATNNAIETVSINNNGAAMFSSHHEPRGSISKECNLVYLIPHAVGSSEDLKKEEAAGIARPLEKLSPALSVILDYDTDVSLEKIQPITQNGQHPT
Outline: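 Tetracycline-induced HEK293 T-REx cells force-coupled to calcium signalling were incubated overnight at 30 C and dye-loaded at room temperature. Calcium flux over 180 s after compound addition flagged agonists; a further 180 s read after EC20 dopamine flagged potentiators.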

[8] = biological target: Peptidyl-prolyl cis-trans isomerase NIMA-interacting 1 (Homo sapiens) (UniProt Q13526); test: qHTS Validation Assay to Find Inhibitors of Pin1 (AID 504536; active means well fitted inhibition curve with a large enough effect in the polarisation, with a control signal flat, not every such curve was filed as active; inconclusive means small, poorly fitted or top-dose-only effect, or effect the other way; the % refers to the polarisation; further: potency means the concentration at half of the fitted maximal effect); conditions: Pin1 fluorescence polarization peptide binding assay; series mostly up to 57.5 µM
Chain of UniProt Q13526 (Q13526 whole entry, looked up): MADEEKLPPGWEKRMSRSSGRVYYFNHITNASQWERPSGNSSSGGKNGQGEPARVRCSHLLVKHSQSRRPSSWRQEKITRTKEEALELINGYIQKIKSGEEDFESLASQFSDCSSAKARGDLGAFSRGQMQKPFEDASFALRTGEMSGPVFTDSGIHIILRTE
Outline: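 Fluorescence polarization competition: compounds (titration) displace HiFluor-488-labeled Pin1-1b peptide from Pin1 (0.3 uM final) in pH 7.5 HEPES buffer with DTT, 10 min at room temperature; %Activity normalized to no-enzyme wells, curves fitted.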

[9] = qHTS for differential inhibitors of proliferation of Plasmodium falciparum line Dd2 (AID 1882); conditions: Potency: Plasmodium falciparum Dd2 proliferation inhibition; series mostly up to 28.7 µM;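 further: plate controls were DMSO vehicle for no effect and 0.29 µM artemisinin for full effect; nearly all actives have a fitted effect of over 65% in size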
Outline: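 SYBR Green DNA fluorescence (ex 485, em 535 nm) after overnight lysis quantifies parasite growth; compound exposure lasted 72 h at 37 C on infected red cells at 2.5% hematocrit, 0.3% parasitemia (final). Artemisinin 0.29 uM and vehicle wells define normalization.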

[10] = Quantitative high throughput screen for delayed death inhibitors of the malarial parasite plastid, 48 hour incubation (AID 488752); conditions: Plasmodium falciparum growth; series mostly up to 28.7 µM; further: on the % scale 0 is the no-effect control and ±100 the full control effect; nearly all actives have a fitted effect of over 65% in size
Outline: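 First, compound was pinned into RPMI 1640 medium containing 0.5% Albumax. Next, reporter-parasite-infected erythrocytes were added to 2% hematocrit and 0.1% parasitemia. After 48 h at 37 C under 5% CO2, luciferase detection reagent was added and luminescence read.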

[11] = test system: Zika virus NS2B-NS3 protease (unlinked); test: Optimization of GU AMC qHTS for Zika virus inhibitors: Unlinked NS2B-NS3 protease assay (AID 1347151); conditions: recombinant ZIKV NS2B-NS3 protease, fluorogenic AMC substrate; series mostly up to 52.5 µM; further: potency means the concentration at half of the fitted maximal effect; nearly all actives have a fitted effect of over 80% in size
Outline: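 Fluorescence read-out (340 nm ex / 450 nm em) of AMC peptide cleavage, taken immediately and after 15 min at room temperature (~20% conversion). Enzyme was the unlinked NS2B–NS3 complex at 25 nM in Tris pH 8.0 buffer.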

[12] = test system: Zika virus NS2B-NS3 protease; test: Primary screen GU AMC qHTS for Zika virus inhibitors (AID 1347154); conditions: Zika NS2B-NS3 unlinked protease, AMC fluorogenic substrate; series mostly up to 54.1 µM; further: potency means the concentration at half of the fitted maximal effect; nearly all actives have a fitted effect of over 70% in size
Outline: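 Unlinked Zika NS2B hydrophilic domain/NS3 protease domain noncovalent complex (25 nM final) in 10 mM Tris-HCl pH 8.0, 0.01% Tween 20, with AMC peptide substrate. Fluorescence (ex 340, em 450 nm) change over 15 min, room temperature; percent inhibition fitted to 4-parameter Hill equation.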

[13] = qHTS Assay for Modulators of Human Peripheral Myelin Protein 22 (PMP22) Expression/Activity (AID 1967; active means well fitted curve in the direction sought with a large enough effect in the signal ratio; inconclusive means small, poorly fitted or top-dose-only effect, or effect the other way, or a change in a side signal; inactive means no such curve, though single readings can be large or run the other way; the % refers to the signal ratio;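 further: 0% = untreated cells and 100% end not stated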); conditions: Cell-based PMP22 reporter, dual-color luciferase ratio, mouse Pmp22 promoter in mouse Schwann cells; activity change (ratio): at 115 µM (top of the series), 0% = compound-free control cells
Outline: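 Mouse MSC80 Schwann line, Pmp22 promoter–CBG68 reporter, EF-alpha–CBR internal control. 24h compound exposure, 37 °C/5% CO2, DMEM + 10% FBS. Readout: corrected green/red luminescence ratio, normalized to untreated cells; concentration-response curves fitted and classified.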

[14] = High Content Imaging Cell-Based qHTS for Inhibitors of the mTORC1 Signaling Pathway in MEF Cells (AID 2667); conditions: series mostly up to 38.3 µM; further: potency means the concentration at half of the fitted maximal effect
Outline: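 Fixed-cell imaging of phospho-S6 (Ser235/236, Alexa-488) after 24 hrs of compound treatment at 37 degree Celsius. Signal was normalized to Hoechst, and thresholds from the highest and lowest wells split cells into % active versus % non-active.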

[15] = Cytometry Cell-Based qHTS for Inhibitors of the mTORC1 Signaling Pathway in MEF cells (AID 2668); conditions: mTORC1 pathway readout; series mostly up to 38.3 µM; further: potency means the concentration at half of the fitted maximal effect;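 on activity change, negative = inhibition: Tsc2-/- p53-/- mouse embryonic fibroblasts stably re-expressing wild-type Tsc2; percent cells positive for phospho-rpS6 Ser235/236 relative to propidium iodide stain; plate controls were DMSO wells for no effect and 7.5 nM rapamycin control wells for full effect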
Outline: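 Read-out: phospho-rpS6 Ser235/236 immunofluorescence normalized to propidium iodide intensity, scored as % active cells against a rapamycin (7.5 nM) threshold. Cells: Tsc2-/-, p53-/- MEFs stably expressing WT Tsc2, compound-treated 24 hrs at 37 degree Celsius.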

[16] = qHTS Assay for Identifying Gametocytocidal Compounds (AID 743244); further: potency means the concentration at half of the fitted maximal effect; conditions: P. falciparum 3D7 stage III-V gametocytes, alamarBlue, 72 h; max response: hits give low values
Outline: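 A resazurin-based viability read-out was applied to mature P. falciparum gametocytes: 72 h compound treatment, then 24 h dye incubation, with falling fluorescence signalling gametocytocidal effect.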

[17] = Tertiary RLuc qRT-PCR qHTS assay for Zika virus inhibitors (AID 1347169); conditions: infected Vero cells, reporter luminescence, 48-72 h; series mostly up to 45.9 µM; further: top concentration of the series differs between compounds; on the % scale 0 is the no-effect control and ±100 the full control effect; nearly all actives have a fitted effect of over 55% in size
Outline: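 Luminescence read-out: live-cell Renilla luciferase substrate applied to infected Vero cells, signal measured after 1-1.5 hrs. Cells had received compound before ZIKV-RLuc (Cambodian strain, MOI 1-2) infection and were incubated 48-72 hrs at 37 degrees C.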
Tags describe the fitted curve by direction and shape or compound fluorescence and quenching.

N#C/C(=C\c1ccc(O)c(O)c1)C(=O)NCCCNC(=O)/C(C#N)=C/c1ccc(O)c(O)c1
activity change, negative = inhibition [1]: inactive: 7.05% | activity change [2]: inconclusive: -34.9% | Potency [3]: inconclusive: 1.47 µM [inhibitor, partial curve]

CCCCCCC/C=C\CCCCCCCCC(=O)O
Potency [4]: active: 35.5 µM | Potency [5]: inconclusive: 28.2 µM [inhibitor, single point] | Potency [6]: inconclusive: 89.1 µM [inhibitor, single point] | Potency [7]: inconclusive: 2.59 µM [activator, single point] | Potency [8]: inconclusive: 33.8 µM [falling, partial curve, poor fit]

Cc1nc(N=Nc2cc(S(=O)(=O)O)c3cc([N+](=O)[O-])cc(S(=O)(=O)O)c3c2)c(COP(=O)(O)O)c(C=O)c1O
Potency [4]: active: 2.82 µM | Potency [5]: active: 10 µM | Potency [9]: inactive | Potency [10]: inactive | Potency [8]: inconclusive: 4.26 µM [quencher, side channel, single point] | Potency [11]: active: 26.7 µM | Potency [12]: inconclusive: 37.7 µM [inhibitor, single point] and inconclusive: 15 µM [inhibitor, partial curve]

CCCCCCCCCCCCCCC[C@H](O)[C@H](N)CO
Potency [5]: inconclusive: 44.7 µM [inhibitor, single point] | Potency [13]: inactive | Potency [14]: inconclusive: 23.3 µM [falling, single point] | Potency [15]: inconclusive: 18.5 µM [falling, single point] | Potency [16]: inconclusive: 5.62 µM [inhibitor, single point]

CC(C)[C@@H]1CC[C@@H](C)C[C@@H]1P(=O)(c1ccccc1)c1ccccc1
Potency [15]: inactive

Cn1c(=O)c2[nH]c(-c3ccc(S(=O)(=O)O)cc3)nc2n(C)c1=O
activity change, negative = inhibition [1]: inactive: 8.07% | Potency [5]: inconclusive: 25.1 µM [inhibitor, single point] | Potency [9]: inactive | Potency [12]: active: 5.32 µM | Potency [17]: inactive

CCN1C(=O)C=CC1=O
Potency [2]: inactive | Potency [6]: inconclusive: 79.4 µM [inhibitor, partial curve, poor fit]

— PubChem BioAssay (NCATS)
